{"source": "the supplement of paper PMC4604168 (melanoma cell lines)", "note": "The list shows a part of the results. Most values come without repeats; read them as rough.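 Note: cells treated in 1,536-well plates, then fixed and DAPI-stained, with nuclei counted from automated high-throughput microscope images.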"}
{"tested_on": "LOXIMVI", "assay": "cell count relative to DMSO control; melanoma cells; higher = more viable cells", "settings": "library dose: standard library concentration; 72 h", "units": {"cell count": "%"}}
{"smiles": "Cc1ccc(NC(=O)c2cccc(N(C)C)c2)cc1NC(=O)c1ccc(O)cc1", "note": "+ COc1ccc(-c2ccc3c(N4CCOCC4)nc(N4C[C@@H](C)O[C@@H](C)C4)nc3n2)cc1CO [KU0063794] (first compound 10 µM, partner dose 0.1 µM)", "cell count": 95.6}
{"smiles": "NC(=O)c1ccc(N(C(N)=O)c2c(F)cccc2F)nc1-c1ccc(F)cc1F", "note": "+ CCN(CC)CCCCNc1ncc2cc(-c3cc(OC)cc(OC)c3)c(NC(=O)NC(C)(C)C)nc2n1 [PD173074] (first compound 2 µM, partner dose 0.5 µM)", "cell count": 111}
{"smiles": "CCCCCCCCc1ccc(CCC(N)(CO)CO)cc1", "note": "[fingolimod] + Oc1nc(-c2ccc(C(F)(F)F)cc2)nc2c1CSCC2 [XAV939] (first compound 10 µM, partner dose 10 µM)", "cell count": 84.5}
{"smiles": "NC(=O)c1ccc(N(C(N)=O)c2c(F)cccc2F)nc1-c1ccc(F)cc1F", "note": "+ COc1cc2ncnc(Nc3ccc(Oc4ccccc4)cc3)c2cc1OC [SrcI1] (first compound 2 µM, partner dose 10 µM)", "cell count": 126}
{"smiles": "CCCCCCCCc1ccc(CCC(N)(CO)CO)cc1", "note": "[fingolimod] + Oc1cc(-c2nc(-c3ccccc3)[nH]c2-c2ccncc2)ccc1Cl [L779450] (first compound 10 µM, partner dose 1 µM)", "cell count": 3.51}
{"smiles": "NC(=O)c1ccc(N(C(N)=O)c2c(F)cccc2F)nc1-c1ccc(F)cc1F", "note": "+ Oc1cc(-c2nc(-c3ccccc3)[nH]c2-c2ccncc2)ccc1Cl [L779450] (first compound 2 µM, partner dose 1 µM)", "cell count": 133}
{"smiles": "COc1cc2c(Oc3ccc4[nH]c(C)cc4c3F)ncnc2cc1OCCCN1CCCC1", "note": "[cediranib] + COC(=O)c1sccc1S(=O)(=O)Nc1ccc(Nc2ccccc2)cc1OC [GSK0660] (first compound 2 µM, partner dose 5 µM)", "cell count": 95}
{"smiles": "NC(=O)c1ccc(N(C(N)=O)c2c(F)cccc2F)nc1-c1ccc(F)cc1F", "note": "+ Cc1cc([N+](=O)[O-])ccc1NS(=O)(=O)c1cc(Cl)ccc1Cl [FH535] (first compound 2 µM, partner dose 5 µM)", "cell count": 68.3}
{"smiles": "Cc1ccc(NC(=O)c2cccc(N(C)C)c2)cc1NC(=O)c1ccc(O)cc1", "note": "+ N#Cc1c(O)c2c(-c3ccc(-c4ccccc4O)cc3)csc2[nH]c1=O [A769662] (first compound 10 µM, partner dose 10 µM)", "cell count": 122}
{"smiles": "NC(=O)c1ccc(N(C(N)=O)c2c(F)cccc2F)nc1-c1ccc(F)cc1F", "note": "+ COc1cc(N2CCC(N3CCN(C)CC3)CC2)ccc1Nc1ncc(Cl)c(Nc2ccccc2S(=O)(=O)C(C)C)n1 [NVP-TAE684] (first compound 2 µM, partner dose 0.4 µM)", "cell count": 87.1}
{"smiles": "CCc1ccc(CCOc2ccc(CC3SC(=O)NC3=O)cc2)nc1", "note": "(stereo unspecified) [pioglitazone] + COc1ccc2c(c1)CCC1C2CCC2(C)C(NCCCCCCN3C(=O)C=CC3=O)CCC12 [U73122] (first compound 10 µM, partner dose 2 µM)", "cell count": 50.2}
{"smiles": "NC(=O)c1ccc(N(C(N)=O)c2c(F)cccc2F)nc1-c1ccc(F)cc1F", "note": "+ COc1ccc2c(c1)CCC1C2CCC2(C)C(NCCCCCCN3C(=O)C=CC3=O)CCC12 [U73122] (first compound 2 µM, partner dose 2 µM)", "cell count": 73.2}
{"smiles": "NC(=O)c1ccc(N(C(N)=O)c2c(F)cccc2F)nc1-c1ccc(F)cc1F", "note": "+ O=S(=O)(c1ccccc1)N(CC(F)(F)F)c1ccc(C(O)(C(F)(F)F)C(F)(F)F)cc1 [T0901317] (first compound 2 µM, partner dose 7 µM)", "cell count": 104}
{"smiles": "CCCCCCCCc1ccc(CCC(N)(CO)CO)cc1", "note": "[fingolimod] + Cc1cc([N+](=O)[O-])ccc1NS(=O)(=O)c1cc(Cl)ccc1Cl [FH535] (first compound 10 µM, partner dose 5 µM)", "cell count": 48.7}
{"smiles": "CCCCCCCCc1ccc(CCC(N)(CO)CO)cc1", "note": "[fingolimod] + COc1ccc2c(c1)CCC1C2CCC2(C)C(NCCCCCCN3C(=O)C=CC3=O)CCC12 [U73122] (first compound 10 µM, partner dose 2 µM)", "cell count": 36.8}
{"smiles": "NC(=O)c1ccc(N(C(N)=O)c2c(F)cccc2F)nc1-c1ccc(F)cc1F", "note": "+ COC(=O)c1sccc1S(=O)(=O)Nc1ccc(Nc2ccccc2)cc1OC [GSK0660] (first compound 2 µM, partner dose 5 µM)", "cell count": 146}
